This passage reports binding results from article PMC3764795.

By UniProt entry, the sequences of proteins in these tests, tags left out. Where a name states a change or a piece, a line headed by the entry shows the natural chain unless it says otherwise. Chains listed by the source or under a name are the forms on record and can include a tag or linker.
UniProt P62993: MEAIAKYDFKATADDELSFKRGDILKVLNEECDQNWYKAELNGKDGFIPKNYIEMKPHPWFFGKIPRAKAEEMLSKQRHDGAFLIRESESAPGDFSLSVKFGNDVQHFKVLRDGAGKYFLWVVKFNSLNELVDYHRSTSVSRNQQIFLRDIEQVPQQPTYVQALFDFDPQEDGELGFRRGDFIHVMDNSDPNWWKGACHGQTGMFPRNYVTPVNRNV
UniProt Q14155: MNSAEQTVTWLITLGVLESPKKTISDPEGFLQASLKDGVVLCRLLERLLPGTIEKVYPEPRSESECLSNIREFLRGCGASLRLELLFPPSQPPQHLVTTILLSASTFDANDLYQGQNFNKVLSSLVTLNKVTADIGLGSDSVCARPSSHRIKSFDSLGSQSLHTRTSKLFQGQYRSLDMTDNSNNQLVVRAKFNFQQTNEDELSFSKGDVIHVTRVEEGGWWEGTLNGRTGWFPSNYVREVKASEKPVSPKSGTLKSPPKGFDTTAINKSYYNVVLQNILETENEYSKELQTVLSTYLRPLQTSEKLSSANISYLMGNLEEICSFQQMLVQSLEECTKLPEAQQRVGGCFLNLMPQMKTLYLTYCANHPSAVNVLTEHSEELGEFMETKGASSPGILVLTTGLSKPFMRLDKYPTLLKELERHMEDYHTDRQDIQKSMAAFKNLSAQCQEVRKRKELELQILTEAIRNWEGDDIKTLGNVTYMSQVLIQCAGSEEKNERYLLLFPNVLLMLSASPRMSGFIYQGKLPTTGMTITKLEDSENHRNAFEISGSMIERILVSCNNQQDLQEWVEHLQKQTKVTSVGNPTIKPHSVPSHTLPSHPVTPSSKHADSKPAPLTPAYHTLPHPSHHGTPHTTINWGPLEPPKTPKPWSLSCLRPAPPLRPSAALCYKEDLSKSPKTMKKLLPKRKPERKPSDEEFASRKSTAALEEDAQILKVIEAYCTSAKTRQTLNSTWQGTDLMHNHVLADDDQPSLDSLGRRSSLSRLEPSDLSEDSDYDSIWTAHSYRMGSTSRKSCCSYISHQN
UniProt Q9GZV5: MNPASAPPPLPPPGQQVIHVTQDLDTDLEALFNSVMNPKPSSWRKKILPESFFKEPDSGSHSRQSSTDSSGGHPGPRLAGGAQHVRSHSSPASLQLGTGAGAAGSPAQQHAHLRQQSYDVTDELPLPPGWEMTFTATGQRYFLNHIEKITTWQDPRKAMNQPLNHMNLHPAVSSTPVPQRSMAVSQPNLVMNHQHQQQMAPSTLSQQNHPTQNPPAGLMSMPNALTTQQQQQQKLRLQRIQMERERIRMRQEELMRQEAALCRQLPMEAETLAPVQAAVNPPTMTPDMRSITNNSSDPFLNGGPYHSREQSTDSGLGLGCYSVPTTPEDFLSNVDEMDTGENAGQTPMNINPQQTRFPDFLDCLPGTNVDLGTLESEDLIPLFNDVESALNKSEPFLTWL
3×FLAG-tagged TAZ (∂WW) (Q9GZV5, form named): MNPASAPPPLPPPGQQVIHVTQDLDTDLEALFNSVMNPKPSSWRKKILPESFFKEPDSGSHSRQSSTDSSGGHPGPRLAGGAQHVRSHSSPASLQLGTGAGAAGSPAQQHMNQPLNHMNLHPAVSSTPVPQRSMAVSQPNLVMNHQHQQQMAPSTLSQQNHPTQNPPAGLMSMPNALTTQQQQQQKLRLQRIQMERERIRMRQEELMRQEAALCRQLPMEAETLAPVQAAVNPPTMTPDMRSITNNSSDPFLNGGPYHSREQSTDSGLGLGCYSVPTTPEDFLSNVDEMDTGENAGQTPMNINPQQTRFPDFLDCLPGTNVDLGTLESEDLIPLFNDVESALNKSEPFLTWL
UniProt P46934: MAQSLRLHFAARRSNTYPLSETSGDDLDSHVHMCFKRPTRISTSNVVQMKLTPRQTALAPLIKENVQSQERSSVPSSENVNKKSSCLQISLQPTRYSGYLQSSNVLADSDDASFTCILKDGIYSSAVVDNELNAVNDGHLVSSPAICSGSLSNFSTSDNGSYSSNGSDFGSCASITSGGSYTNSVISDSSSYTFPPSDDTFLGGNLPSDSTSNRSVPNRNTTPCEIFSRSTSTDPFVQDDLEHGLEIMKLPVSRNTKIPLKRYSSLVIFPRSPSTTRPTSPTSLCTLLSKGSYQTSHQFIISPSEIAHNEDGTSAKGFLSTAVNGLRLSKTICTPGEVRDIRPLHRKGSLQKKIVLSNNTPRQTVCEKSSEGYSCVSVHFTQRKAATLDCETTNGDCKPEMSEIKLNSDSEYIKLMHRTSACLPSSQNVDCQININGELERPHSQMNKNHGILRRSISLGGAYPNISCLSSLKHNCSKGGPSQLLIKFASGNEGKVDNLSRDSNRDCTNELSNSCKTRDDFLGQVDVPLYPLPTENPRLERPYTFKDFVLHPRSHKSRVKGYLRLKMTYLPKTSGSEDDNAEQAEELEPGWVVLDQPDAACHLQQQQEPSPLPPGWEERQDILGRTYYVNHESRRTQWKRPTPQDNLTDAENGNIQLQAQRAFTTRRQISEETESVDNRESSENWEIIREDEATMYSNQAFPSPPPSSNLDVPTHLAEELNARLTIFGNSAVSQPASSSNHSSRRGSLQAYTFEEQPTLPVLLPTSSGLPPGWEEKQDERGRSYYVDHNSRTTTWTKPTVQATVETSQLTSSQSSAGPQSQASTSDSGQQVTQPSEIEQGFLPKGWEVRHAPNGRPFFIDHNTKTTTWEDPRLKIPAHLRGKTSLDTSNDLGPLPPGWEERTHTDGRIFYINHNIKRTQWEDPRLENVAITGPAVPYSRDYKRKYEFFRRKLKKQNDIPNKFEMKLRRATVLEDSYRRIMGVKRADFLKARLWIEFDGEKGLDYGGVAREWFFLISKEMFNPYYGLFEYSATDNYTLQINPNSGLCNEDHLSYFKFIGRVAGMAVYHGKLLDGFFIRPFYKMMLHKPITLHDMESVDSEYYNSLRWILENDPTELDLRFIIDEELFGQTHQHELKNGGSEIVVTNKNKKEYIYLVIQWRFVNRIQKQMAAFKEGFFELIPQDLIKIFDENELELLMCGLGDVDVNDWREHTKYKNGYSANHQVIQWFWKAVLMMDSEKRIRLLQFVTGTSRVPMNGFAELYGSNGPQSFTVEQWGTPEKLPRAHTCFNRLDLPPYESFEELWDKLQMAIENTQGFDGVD

Positions count from the first letter of the chain named. Results are given in words; binding and its absence hold for the method and conditions named. Binding seen in cells or lysates may run through a third protein. Some entries that bind do so weakly or less than the wild type. For part of these data: Tags and fused reporters may be left off the sequences shown.

For assay [1], the target named is T1, GST-tagged cytosolic PRRG4 (GST-PRRG4cyto) (human) (UniProt Q9BZD6).
T1 sequence: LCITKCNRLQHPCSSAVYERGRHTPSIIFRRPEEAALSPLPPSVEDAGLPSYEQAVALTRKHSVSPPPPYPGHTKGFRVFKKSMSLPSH
Description: pull-down; GST pulldown with GST-PRRG4cyto (wild type or mutant) or GST only made in E. coli; overexpressed or endogenous proteins of cells; Western blot with anti-FLAG or antibodies against the interacting proteins; only the target purified. For orientation: Immunoblotting shows a protein as a band on a membrane.

For a further assay, the target named is T2, GST-PRRG4 Y207A (human) (UniProt Q9BZD6).
T2 sequence: T1 sequence with Y70A
The assay is described as above.

In assay [2] the target is FLAG-Myc-tagged GRB2 (human) (UniProt P62993). In words: co-IP; cytosolic PRRG4 co-expressed with FLAG-tagged proteins in HEK293; anti-FLAG immunoprecipitation from lysates, immunoblot with anti-PRRG4.
Another assay has as its target T3, FLAG-Myc-tagged OSTF (UniProt Q92882).
T3 sequence: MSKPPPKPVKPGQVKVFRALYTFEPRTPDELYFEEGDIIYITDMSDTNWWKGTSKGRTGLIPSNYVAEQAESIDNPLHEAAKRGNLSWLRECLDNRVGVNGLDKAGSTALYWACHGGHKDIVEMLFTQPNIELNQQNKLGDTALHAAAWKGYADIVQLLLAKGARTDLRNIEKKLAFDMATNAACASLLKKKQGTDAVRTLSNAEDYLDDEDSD
The assay is described as above.

Another assay concerns the target FLAG-tagged cool1/βPIX (UniProt Q14155). Described as above.
Assay [3] has as its target FLAG-tagged WWTR1/TAZ, wild type (human (OriGene clone); not stated (Addgene clone)) (UniProt Q9GZV5). The description is as above.

With “3×FLAG-tagged TAZ (∂393) (from UniProt Q9GZV5 1-393) (domain or fragment)”, the binding entry in assay [1] is listed as “binds”.

With “3×FLAG-tagged TAZ (∂WW) (from UniProt Q9GZV5 1-400)”, the binding entry in assay [1] is “binds”.

Consider “FLAG-tagged WWTR1/TAZ, wild type (from UniProt Q9GZV5 1-400)”, for which the binding entry (in assay [1]; in the assay with GST-PRRG4 Y207A (human)) was “binds” in each case.

As to “endogenous NEDD4 (from UniProt P46934 1-1319)”, the binding entry (in assay [1]; in the assay with GST-PRRG4 Y207A (human)) was “binds” throughout.

In the case of “3×FLAG-tagged TAZ (S89A) (from UniProt Q9GZV5 1-400)”, the binding entry in assay [1] is “binds”.

As for “FLAG-tagged cool1/βPIX (from UniProt Q14155 1-803)”, the binding result in assay [1] is reported as “no binding”.

B1: Cytosolic PRRG4 in a mammalian expression vector (domain or fragment, UniProt Q9BZD6 138-226)
chain: T1 sequence
B1: the binding result is “no binding” in assay [2], “no binding” with FLAG-Myc-tagged OSTF, “no binding” in the assay with FLAG-tagged cool1/βPIX and “binds” in assay [3].

B2: FLAG-Myc-tagged OSTF (protein, UniProt Q92882 1-214)
chain: T3 sequence
As for B2, the binding entry in assay [1] is “no binding”.

B3: MAGI-3 (protein, UniProt Q5TCQ9 1-1481)
chain: MSKTLKKKKHWLSKVQECAVSWAGPPGDFGAEIRGGAERGEFPYLGRLREEPGGGTCCVVSGKAPSPGDVLLEVNGTPVSGLTNRDTLAVIRHFREPIRLKTVKPGKVINKDLRHYLSLQFQKGSIDHKLQQVIRDNLYLRTIPCTTRAPRDGEVPGVDYNFISVEQFKALEESGALLESGTYDGNFYGTPKPPAEPSPFQPDPVDQVLFDNEFDAESQRKRTTSVSKMERMDSSLPEEEEDEDKEAINGSGNAENRERHSESSDWMKTVPSYNQTNSSMDFRNYMMRDETLEPLPKNWEMAYTDTGMIYFIDHNTKTTTWLDPRLCKKAKAPEDCEDGELPYGWEKIEDPQYGTYYVDHLNQKTQFENPVEEAKRKKQLGQVEIGSSKPDMEKSHFTRDPSQLKGVLVRASLKKSTMGFGFTIIGGDRPDEFLQVKNVLKDGPAAQDGKIAPGDVIVDINGNCVLGHTHADVVQMFQLVPVNQYVNLTLCRGYPLPDDSEDPVVDIVAATPVINGQSLTKGETCMNPQDFKPGAMVLEQNGKSGHTLTGDGLNGPSDASEQRVSMASSGSSQPELVTIPLIKGPKGFGFAIADSPTGQKVKMILDSQWCQGLQKGDIIKEIYHQNVQNLTHLQVVEVLKQFPVGADVPLLILRGGPPSPTKTAKMKTDKKENAGSLEAINEPIPQPMPFPPSIIRSGSPKLDPSEVYLKSKTLYEDKPPNTKDLDVFLRKQESGFGFRVLGGDGPDQSIYIGAIIPLGAAEKDGRLRAADELMCIDGIPVKGKSHKQVLDLMTTAARNGHVLLTVRRKIFYGEKQPEDDSSQAFISTQNGSPRLNRAEVPARPAPQEPYDVVLQRKENEGFGFVILTSKNKPPPGVIPHKIGRVIEGSPADRCGKLKVGDHISAVNGQSIVELSHDNIVQLIKDAGVTVTLTVIAEEEHHGPPSGTNSARQSPALQHRPMGQSQANHIPGDRSALEGEIGKDVSTSYRHSWSDHKHLAQPDTAVISVVGSRHNQNLGCYPVELERGPRGFGFSLRGGKEYNMGLFILRLAEDGPAIKDGRIHVGDQIVEINGEPTQGITHTRAIELIQAGGNKVLLLLRPGTGLIPDHGDWDINNPSSSNVIYDEQSPLPPSSHFASIFEESHVPVIEESLRVQICEKAEELKDIVPEKKSTLNENQPEIKHQSLLQKNVSKRDPPSSHGHSNKKNLLKVENGVTRRGRSVSPKKPASQHSEEHLDKIPSPLKNNPKRRPRDQSLSPSKGENKSCQVSTRAGSGQDQCRKSRGRSASPKKQQKIEGSKAPSNAEAKLLEGKSRRIAGYTGSNAEQIPDGKEKSDVIRKDAKQNQLEKSRTRSPEKKIKRMVEKSLPSKMTNKTTSKEVSENEKGKKVTTGETSSSNDKIGENVQLSEKRLKQEPEEKVVSNKTEDHKGKELEAADKNKETGRFKPESSSPVKKTLITPGPWKVPSGNKVTGTIGMAEKRQ
As for B3, the binding result (in assay [1]; with GST-PRRG4 Y207A (human)) was “binds” each time.
